# From the supplement of paper PMC3334620
# In all, about 33,000 sequences were measured (“E-score (-0.5 to 0.5)”: median about -0.016, highest 2% from about 0.32 on). The list shows a part of the results.
# Biological target: T1, Stp1 (UniProt B3LFK1)
# T1 sequence: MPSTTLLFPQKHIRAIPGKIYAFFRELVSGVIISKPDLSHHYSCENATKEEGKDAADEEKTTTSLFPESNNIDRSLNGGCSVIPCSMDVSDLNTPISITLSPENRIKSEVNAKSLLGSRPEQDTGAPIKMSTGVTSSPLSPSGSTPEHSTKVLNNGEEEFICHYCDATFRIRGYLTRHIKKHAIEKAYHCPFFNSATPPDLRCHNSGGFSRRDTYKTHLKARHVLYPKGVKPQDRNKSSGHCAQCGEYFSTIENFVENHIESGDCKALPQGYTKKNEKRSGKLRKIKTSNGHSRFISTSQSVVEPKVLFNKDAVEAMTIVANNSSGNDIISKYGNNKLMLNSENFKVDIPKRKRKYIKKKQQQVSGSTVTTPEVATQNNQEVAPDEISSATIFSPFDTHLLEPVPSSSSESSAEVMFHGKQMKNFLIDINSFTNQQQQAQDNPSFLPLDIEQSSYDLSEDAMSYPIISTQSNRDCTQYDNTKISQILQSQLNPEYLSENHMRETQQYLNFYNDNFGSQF
# Assay: PBM E-score (8-mer binding enrichment) (E-score (-0.5 to 0.5)); higher = stronger / more preferred TF binding; most listed sequences are background and not binding sites
# Conditions: protein concentration: 200 nM; construct: GST-full length
# Procedure: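 Universal 'all 10-mer' protein binding microarrays (Agilent AMADID 015681) probed with GST-tagged S. cerevisiae TFs (full-length or DBD) made by in vitro transcription/translation (PURExpress), about 100-200 nM. Bound TF was detected with fluorescent anti-GST. Each ungapped 8-mer (which stands for itself and its reverse complement) is scored by the PBM enrichment score (E-score), a modified Wilcoxon-Mann-Whitney statistic from -0.5 to +0.5, computed with the Universal PBM Analysis Suite. Scale: above 0.35 generally sequence-specific binding.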
row,Sequence,PBM E-score
1,CCACTTAG,0.0127
2,CCTGCCCC,-0.275
3,GACTCAAA,-0.0919
4,CTCTAAGA,0.0388
5,ACAACATA,0.0457
6,AATCAGCA,0.153
7,GACGACCA,-0.119
8,CCTTCTGC,-0.215
9,AATTTGTA,0.159
10,TAGCTCGA,-0.0947
11,ATTGTTAG,0.0841
12,GTATTCTA,0.152
13,CTGATGGC,-0.076
14,ACCAACGC,-0.0422
15,AATTCGCG,0.102
16,AGGATAAA,0.0297
17,AGGAAACA,0.0835
18,CAAATTCG,0.0115
19,GCAGAACC,-0.0732
20,TCAAAAGA,0.155
21,CCGGCCTC,-0.2
22,CATCTCGA,-0.0909
23,GCCGGTAA,0.0143
24,ATAGTTCC,-0.0258
25,AACTAACT,-0.0452

row,Sequence,PBM E-score
1,ACCTGCGA,-0.259
2,GGCATCAA,0.287
3,CAAATAGG,0.0882
4,CTGCTCAC,-0.133
5,CTGTCAAC,0.0325
6,GAACTGTA,0.26
7,ACACGACC,0.0261
8,GTAGTGCA,0.141
9,AGACTTGG,-0.281
10,CCATCACG,0.0153
11,AACCTGCT,-0.161
12,CCGCGCTC,0.235
13,CATTTACG,0.0853
14,ATCGTTAG,0.076
15,AATCGAGA,-0.105
16,ATGCGAAC,-0.103
17,GGTCTTTA,0.0371
18,ATAATCTC,0.122
19,CCTGACTA,0.0312
20,TGAAGCAA,-0.137
21,GTTTGTCA,0.0254
22,ATGCCTAC,-0.053
23,AGAATTAG,-0.198
24,AGGGGCAG,-0.228
25,ACAAGACA,0.201

row,Sequence,PBM E-score
1,ACCGATAC,0.0657
2,GCCGTAGA,0.427
3,GGTAAGTA,0.102
4,AAAAGCAA,0.135
5,ATCCCGAC,-0.0881
6,ATTGGTAG,-0.00738
7,ATGCGTTA,0.0413
8,CGTAGCGC,-0.102
9,GAATCGCA,-0.16
10,GCTTCTTA,-0.065
11,ATACGGAG,0.201
12,ATTTCGAG,0.115
13,CGTAGTAG,0.0956
14,AATAGCAA,0.0203
15,GACCTCGC,-0.13
16,CAGTTTAC,0.0432
17,AGTTTAGC,-0.0815
18,AATGCACG,0.0521
19,CGTTTAAA,0.196
20,GAAGACAC,0.122
21,CCGATGGA,-0.153
22,AGCCACAA,-0.0478
23,AAGTCACG,-0.0977
24,ATAATCCC,-0.153
25,ATAACCAA,0.0771

row,Sequence,PBM E-score
1,CAAAATCC,0.195
2,CGAAGTTC,0.0377
3,AACTTGCC,0.0528
4,AACCCGTG,0.034
5,CGGTCGGC,-0.02
6,AGAGTTAA,0.05
7,AACGAGGA,-0.0645
8,GAACCCGC,-0.0711
9,GGAATTCC,-0.236
10,AAAAATCT,0.0736
11,TCTAAGCA,0.104
12,AATAGTGG,-0.11
13,GGATGTGA,-0.084
14,GCAACCGA,-0.0402
15,TCTACGCA,0.157
16,AGAGTCGG,-0.108
17,CACCAATG,-0.165
18,AGAAAAGA,-0.0559
19,GAACTCGA,-0.0365
20,CACGCCTC,0.205
21,CCGAGGCA,0.179
22,ATTGCTCG,-0.121
23,CTTTCAAA,0.137
24,CCGTCTAC,0.206
25,ACCTGACT,-0.0202

row,Sequence,PBM E-score
1,GCCGAATA,0.265
2,GCACTTAA,0.235
3,AAACGGAT,0.259
4,CTCGACCA,-0.0695
5,AACTATAG,-0.193
6,GGTGCACC,0.0513
7,CAGAATCA,0.0949
8,CATCATCC,-0.0318
9,AATGTACA,0.0493
10,CCTAGTAA,-0.159
11,CCATGCGC,-0.0475
12,AATTGGAC,0.0534
13,AGGACCCA,-0.355
14,ACGCAGTC,-0.287
15,GGCTACGA,0.0642
16,GCAGTCCC,-0.352
17,GGGGTGAA,-0.282
18,CATCGGTA,-0.0281
19,CTTAATCC,-0.109
20,CTTTCTGC,0.124
21,GTTCTTAA,0.0537
22,CCGTGAAG,-0.0571
23,GTCATAGA,-0.00134
24,ACGTACAT,0.0249
25,ATTGGTGG,-0.0784

row,Sequence,PBM E-score
1,GGTGTGCA,-0.234
2,TACTCCTA,0.0822
3,GTGAACCA,0.0909
4,CTCACCTA,0.0144
5,CACGTTTA,0.103
6,CTCCAAAC,0.12
7,CTAGTTCC,-0.048
8,CCGGTCCA,-0.212
9,AGCTTAGG,-0.0471
10,CAGGTCCG,-0.205
11,ACCTAGAC,-0.18
12,CGGGGGAA,-0.285
13,AGTAGGAA,-0.00334
14,AGTAGGTC,-0.17
15,CCAGGTGC,-0.187
16,AGGTCCCA,-0.313
17,AAATAAAG,0.011
18,ATCACGAA,0.0498
19,TCACTAAA,-0.0488
20,CGACTAAA,-0.036
21,AGCACAGG,-0.129
22,TCCGCGAA,0.213
23,AGAACTGC,0.0177
24,AGATCACG,-0.00795
25,GACAGTTA,-0.117

row,Sequence,PBM E-score
1,CGACGCCA,0.106
2,AGTGTCCA,0.0853
3,AATTGTAG,0.038
4,CCGCGAAG,0.163
5,AAAAGCGG,0.189
6,GAGAGTCC,-0.126
7,CTTTATGA,-0.15
8,AAGACAGG,0.00525
9,ACCTCGAT,-0.0777
10,AGAGGGCT,-0.358
11,ATGCCATA,0.117
12,AACGTTCT,0.0162
13,ACATCAGG,-0.0997
14,CCGTCACC,-0.0694
15,CGGATGTC,-0.0665
16,ACGGAAGT,0.0615
17,AGAATAGA,-0.0123
18,ACCAGCAT,-0.271
19,AGGATACT,-0.198
20,ACGCATTA,-0.0955
21,ATTTAGGG,0.0511
22,TAGATCGA,-0.163
